# Source: the supplement of paper PMC8728848
# The list shows a part of the results.
# Columns and labels:
# Assay in all cases: glycan array binding signal (z-score within array); higher = stronger binding
# Details in all cases: glycan notation: IUPAC condensed, linker removed
# [1] = target: GlcNAc(b1-2)[GlcNAc(b1-4)]Man(a1-3)[GlcNAc(b1-2)Man(a1-6)]Man(b1-4)GlcNAc(b1-4)GlcNAc
# In short: (§1)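 The binding signal is a Z-score computed within each array and averaged over linkers. Arrays of the same protein sequence at different concentrations or buffers were also averaged together. Data originate from 3228 arrays in the Consortium for Functional Glycomics database, kept only where the protein sequence was available.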
# [2] = target: GlcNAc(b1-2)[GlcNAc(b1-4)]Man(a1-3)[GlcNAc(b1-4)][GlcNAc(b1-2)Man(a1-6)]Man(b1-4)GlcNAc(b1-4)GlcNAc
# In short: as §1
# [3] = target: GlcNAc(b1-2)[GlcNAc(b1-4)]Man(a1-3)[GlcNAc(b1-4)][GlcNAc(b1-2)[GlcNAc(b1-6)]Man(a1-6)]Man(b1-4)GlcNAc(b1-4)GlcNAc
# In short: as §1
# [4] = target: GlcNAc(b1-2)[GlcNAc(b1-4)]Man(a1-3)[GlcNAc(b1-4)][GlcNAc(b1-2)[GlcNAc(b1-6)]Man(a1-6)]Man(b1-4)GlcNAc(b1-4)[Fuc(a1-6)]GlcNAc
# In short: as §1
# [5] = target: GlcNAc(b1-2)[GlcNAc(b1-6)]Man(a1-6)[GlcNAc(b1-2)Man(a1-3)]Man(b1-4)GlcNAc(b1-4)GlcNAc
# In short: as §1
# [6] = target: GlcNAc(b1-2)[GlcNAc(b1-6)]Man(a1-6)[GlcNAc(b1-2)Man(a1-3)]Man(b1-4)GlcNAc(b1-4)[Fuc(a1-6)]GlcNAc
# In short: as §1
# [7] = target: GlcNAc(b1-2)[GlcNAc(b1-6)]Man(a1-6)[GlcNAc(b1-2)Man(a1-3)][GlcNAc(b1-4)]Man(b1-4)GlcNAc(b1-4)GlcNAc
# In short: as §1
# GlcNAc(b1-3)Gal = target: GlcNAc(b1-3)Gal
# In short: as §1
# [8] = target: GlcNAc(b1-3)Gal(b1-3)GalNAc
# In short: as §1
# GlcNAc(b1-3)Gal(b1-4)Glc = target: GlcNAc(b1-3)Gal(b1-4)Glc
# In short: as §1
# [9] = target: GlcNAc(b1-3)Gal(b1-4)GlcNAc
# In short: as §1
# [10] = target: GlcNAc(b1-3)Gal(b1-4)GlcNAc(b1-3)Gal(b1-4)GlcNAc
# In short: as §1
# GlcNAc(b1-3)GalNAc = target: GlcNAc(b1-3)GalNAc
# In short: as §1
# GlcNAc(b1-3)Man = target: GlcNAc(b1-3)Man
# In short: as §1
# [11] = target: GlcNAc(b1-3)[GlcNAc(b1-4)][GlcNAc(b1-6)]GlcNAc
# In short: as §1
# [12] = target: GlcNAc(b1-3)[GlcNAc(b1-6)]Gal(b1-4)GlcNAc
# In short: as §1
# [13] = target: GlcNAc(b1-3)[GlcNAc(b1-6)]GalNAc
# In short: as §1
# [14] = target: GlcNAc(b1-4)Gal(b1-4)GlcNAc
# In short: as §1
# GlcNAc(b1-4)GlcNAc = target: GlcNAc(b1-4)GlcNAc
# In short: as §1
# [15] = target: GlcNAc(b1-4)GlcNAc(b1-4)GlcNAc
# In short: as §1
# [16] = target: GlcNAc(b1-4)GlcNAc(b1-4)GlcNAc(b1-4)GlcNAc(b1-4)GlcNAc
# In short: as §1
# [17] = target: GlcNAc(b1-4)GlcNAc(b1-4)GlcNAc(b1-4)GlcNAc(b1-4)GlcNAc(b1-4)GlcNAc
# In short: as §1
# [18] = target: GlcNAc(b1-4)[GlcNAc(b1-6)]GalNAc
# In short: as §1
# [19] = target: GlcNAc(b1-6)Gal(b1-4)GlcNAc
# In short: as §1
# GlcNAc(b1-6)GalNAc = target: GlcNAc(b1-6)GalNAc
# In short: as §1
# GlcNAc3Prop(b1-4)GlcNAc = target: GlcNAc3Prop(b1-4)GlcNAc
# In short: as §1
# [20] = target: GlcNAc6S(b1-3)Gal(b1-4)GlcNAc
# In short: as §1
# Kdn(a2-3)Gal(b1-3)GalNAc = target: Kdn(a2-3)Gal(b1-3)GalNAc
# In short: as §1
# Kdn(a2-3)Gal(b1-3)GlcNAc = target: Kdn(a2-3)Gal(b1-3)GlcNAc
# In short: as §1
# Kdn(a2-3)Gal(b1-4)Glc = target: Kdn(a2-3)Gal(b1-4)Glc
# In short: as §1
# Kdn(a2-3)Gal(b1-4)GlcNAc = target: Kdn(a2-3)Gal(b1-4)GlcNAc
# In short: as §1
# [21] = target: Kdn(a2-3)Gal(b1-4)[Fuc(a1-3)]GlcNAc
# In short: as §1
# Kdn(a2-6)Gal(b1-4)GlcNAc = target: Kdn(a2-6)Gal(b1-4)GlcNAc
# In short: as §1
# [22] = target: Man(a1-2)Man(a1-2)Man(a1-3)Man
# In short: as §1
# [23] = target: Man(a1-2)Man(a1-2)Man(a1-6)[Man(a1-3)]Man
# In short: as §1
# Man(a1-2)Man(a1-3)Man = target: Man(a1-2)Man(a1-3)Man
# In short: as §1
# [24] = target: Man(a1-2)Man(a1-3)[Man(a1-2)Man(a1-6)]Man
# In short: as §1
# [25] = target: Man(a1-2)Man(a1-3)[Man(a1-2)Man(a1-6)]Man(a1-6)[Man(a1-2)Man(a1-2)Man(a1-3)]Man
# In short: as §1
binder,measurement,setting,value
"Strep tagII-anxA1 (Homo sapiens), P04083 (protein) MAMVSEFLKQAWFIENEEQEYVQTVKSSKGGPGSAVSPYPTFNPSSDVAALHKAIMVKGVDEATIIDILTKRNNAQRQQIKAAYLQETGKPLDETLKKALTGHLEEVVLALLKTPAQFDADELRAAMKGLGTDEDTLIEILASRTNKEIRDINRVYREELKRDLAKDITSDTSGDFRNALLSLAKGDRSEDFGVNEDLADSDARALYEAGERRKGTDVNVFNTILTTRSYPQLRRVFQKYTKYSKHDMNKVLDLELKGDIEKCLTAIVKCATSKPAFFAEKLHQAMKGVGTRHKALIRIMVSRSEIDMNDIKAFYQKMYGISLCQAILDETKGDYEKILVALCGGN",glycan array binding signal (z-score),[1],-0.771
same,glycan array binding signal (z-score),[2],-0.718
same,glycan array binding signal (z-score),[3],-0.563
same,glycan array binding signal (z-score),[4],-0.569
same,glycan array binding signal (z-score),[5],-0.21
same,glycan array binding signal (z-score),[6],0.754
same,glycan array binding signal (z-score),[7],-0.77
same,glycan array binding signal (z-score),GlcNAc(b1-3)Gal,-0.607
same,glycan array binding signal (z-score),[8],-0.026
same,glycan array binding signal (z-score),GlcNAc(b1-3)Gal(b1-4)Glc,-0.424
same,glycan array binding signal (z-score),[9],-0.207
same,glycan array binding signal (z-score),[10],-0.752
same,glycan array binding signal (z-score),GlcNAc(b1-3)GalNAc,-0.425
same,glycan array binding signal (z-score),GlcNAc(b1-3)Man,-0.223
same,glycan array binding signal (z-score),[11],2.8
same,glycan array binding signal (z-score),[12],-0.692
same,glycan array binding signal (z-score),[13],-0.727
same,glycan array binding signal (z-score),[14],-0.716
same,glycan array binding signal (z-score),GlcNAc(b1-4)GlcNAc,-0.655
same,glycan array binding signal (z-score),[15],-0.38
same,glycan array binding signal (z-score),[16],-0.763
same,glycan array binding signal (z-score),[17],-0.703
same,glycan array binding signal (z-score),[18],-0.519
same,glycan array binding signal (z-score),[19],-0.32
same,glycan array binding signal (z-score),GlcNAc(b1-6)GalNAc,-0.424
same,glycan array binding signal (z-score),GlcNAc3Prop(b1-4)GlcNAc,-0.494
same,glycan array binding signal (z-score),[20],-0.688
same,glycan array binding signal (z-score),Kdn(a2-3)Gal(b1-3)GalNAc,-0.296
same,glycan array binding signal (z-score),Kdn(a2-3)Gal(b1-3)GlcNAc,-0.652
same,glycan array binding signal (z-score),Kdn(a2-3)Gal(b1-4)Glc,1.38
same,glycan array binding signal (z-score),Kdn(a2-3)Gal(b1-4)GlcNAc,-0.41
same,glycan array binding signal (z-score),[21],-0.093
same,glycan array binding signal (z-score),Kdn(a2-6)Gal(b1-4)GlcNAc,-0.606
same,glycan array binding signal (z-score),[22],-0.615
same,glycan array binding signal (z-score),[23],-0.215
same,glycan array binding signal (z-score),Man(a1-2)Man(a1-3)Man,-0.123
same,glycan array binding signal (z-score),[24],-0.308
same,glycan array binding signal (z-score),[25],0.503
